# Measurements taken from the RNAGym collection of RNA variant scans (doi:10.7554/elife.90254).
# The source gives no read counts; variants with many changes may rest on few reads.
# B1: LINE1-full (parent)
# chain: UACGUAGGUGGUUUUCCCCUGAUAGUGCUAAGGGGGCCUGGAAGUUUGGACUGGGCAGAGCUCAACACAGCGUGGCAAAGUGGCUGUGGCUAGACUGCCUCUCUGGAUUCCUCGUCACUCAGCAGGGCAUCUCUGAGAGAAAUGCC
# Variants of: B1
# Test: self-cleavage, relative activity (ratio to wild type); higher = more cleavage; in vitro, sequencing; the parent is a self-cleaving ribozyme
row,Variant,self-cleavage
1,U13C A57G U100C C111U,2.67
2,A22U A31U C66U U81C U108C,0.13
3,A2G U26C U115C C116A A136U,1.29
4,C16U A57U G83A U130C,0.02
5,A30G A57G G126U,0
6,A2G U5C U14C,1.38
7,A57G U81C U96A,0
8,U14C G114A U134A,0.71
9,G11A A43U U108C U109C A142G,0.82
10,U14C U15A G114A,0.63
11,G33A A43G G53C G86A,0.08
12,U5C U108C C116U,1.51
13,U9A U13G A77G A140G,0.54
14,U9C G32C U119C,1.24
15,A31G A43G U62C,0.19
16,U23C U115C U119A,2.8
17,A24G A124U A129U U143A,1.11
18,U45C A64G A92U A142G,0.85
19,U46C A117G C131U,1.23
20,A67G A69G A121U,0.2
21,A30G U100A U102C,0.77
22,U47A G58U C63U A140G,0.05
23,U13C U14A A67G,0.61
24,U13A U20A A42U U81C A138C,1.19

row,Variant,self-cleavage
1,A24U U46C A59U,0.8
2,U39C G40U U81A,1.88
3,A24U A30G A42G U62A,0
4,G44U U45C U73A G137U,1.9
5,U52A U112C U132C A142G,1.13
6,U14C G32U A129G,1.27
7,U39G U52C A78G,1.53
8,U102C U108A U109C A136G,0.77
9,U9A U52C A77G U100C,1.31
10,U13A A42G A65G U81A,0.02
11,U12C U47A U81A C90A,0.1
12,U13C U47A U87C U115A G144A,0.21
13,U5A U20A U26C A59U A69G C76U U87C,0.37
14,G8C U130C A142G,2.27
15,U13A A43G U46A,1.01
16,U12C A22G A50G G74A,0.44
17,A42G A64G U100C A141G,0
18,U39C A79G U91C U143C,0
19,U13C U73C A117U U134C,1.6
20,G34U U91C U96A,0.08
21,U91C U109C U143C,0.19
22,U14C U26C U46C,1.48
23,U9C U12C U13C U134A,1.95
24,C66U U87C U102C,0

row,Variant,self-cleavage
1,U1C U45C U109A,0.81
2,U9A U13C A42G U134C,1.36
3,U13C U20C U85C A136G,0.56
4,U112C G127C U134A,1.97
5,U1C A67G C120U,0.44
6,G32U U46A A136U,1.17
7,U45A A77U U87A A142G,0.05
8,U14G C71U U132C,1.28
9,A30U A79C U81C U87C,0
10,A78U C113A U119A,1.4
11,A22G U46C G48U A138U,0.85
12,U12C A78U U143C,1.79
13,G7U U39C A64C A67G,0
14,U14C G32C U91A G114A,0.54
15,A67G A107G A138G,0.81
16,U14C U26C A50G,0.48
17,U1C U91C U132A,0.68
18,G34A A59U U62A,0.02
19,U87A U115C A138G,0
20,U12G G89U G126A,0.02
21,C19A U47C A77U A138G A140G C146A,2.26
22,U9A U12A U115A U119C G137U,0.44
23,U15C U45A A59G A136G A140G,0.19
24,U9A U20A U96G A107U U109C,0

row,Variant,self-cleavage
1,A57G U81C C98U,0.12
2,U12C U15C A64G G125A,0.63
3,A43U A65G A77C A117U A121U,0
4,U13A U20A G35A U100C C110U,1.14
5,A50G A57U C118U,0.09
6,A69C C120A U134C A142G,0.08
7,C66G A67G U85A A142G,0.05
8,U52A A94C U132C,0.03
9,G11A U20C U26G U108C A142G,1.63
10,U62C A138G U143C,0.07
11,U45C C95U U96C,0.12
12,U9C U87C A94G,0
13,U23C U134C A138G C146U,1.44
14,U13C A50U A69U U73A A136G A138G U143C,0.02
15,G27A C56U U132A,0.18
16,U5C A43U U45G U143C,0
17,A50U A67G U96C A121U,0
18,A42G A65U U87A G114A,0.05
19,A42U U108A U115C U143C,0.61
20,A22U G88A A121G,0.05
21,U20C U45C A141G,1.79
22,U20A U62A A142G,0.04
23,U47A U52G U73A U85A,0.09
24,C3U A50G U96C A136U,0.35

row,Variant,self-cleavage
1,U39G A121U U134A,1.43
2,C51U G80U U85C U102C A138G,0
3,U96A U104C A107G A124G,0
4,A22G A59G C63U A67U A121G A136G,0.24
5,U108C G125U U130C,1.96
6,U45A A57U A67G,0.05
7,U20A A65G C98G,0.14
8,U26C U109A A141G,1.61
9,G8A G27A G35A U115A,0.97
10,A22G A57G U85A,0.2
11,U9G A42U A50G A65U A140G,0.28
12,U14C U39C U96C A129G,0
13,U39A A67G G74A A121G,0.27
14,U52A A138G A142U,1.29
15,U5C A31U U45A A77G,0.8
16,A43G G105A A117G A136G,1.22
17,A6G U12A C56U U100C,0.17
18,A59U C76U U102C,1.09
19,A50G U112C U115A,1.57
20,U12A A67G A138G,0.33
21,A43G G97A U119G,0.06
22,U39A C61U A79U,0.05
23,U15C U96A U119C U143C,0.05
24,G80U U130C U134A,1.75

row,Variant,self-cleavage
1,U73C G86A U108C,0.1
2,A77G U85G U100C U143A,1.08
3,U9G U20C U102A A107U A142G,0.88
4,U46C U87A U108C,0.12
5,U12C U14C A64G U102C U104A,1.31
6,U9A A77G G97C U134G,0.41
7,A6G U45C U46C C95U,0
8,G75A A77U A92U,0.32
9,U29A A77U U96C U143C,0.16
10,U13C A65U A140G,0.16
11,G40U U45C A94U,0.37
12,A22G A67U A92G A121G A129G,0
13,G10A U102A A141G,1.1
14,C18U U47C U132A,0.84
15,A24G A57U A67G U109A U134A,0
16,G27A U46C U47C U62C A79G,0.35
17,U46C A57U C120U,0.22
18,A31G U73C U87A A124U U143A,0.13
19,U5C A22U A59G,0.42
20,A50C U100G U130C,0
21,A64U A69U A77G A79G,0
22,A78U U87C U96A,0.15
23,U100C C103U G135A,1.31
24,C18A A43G U62C U115C A129G,0

row,Variant,self-cleavage
1,A57G A94G C116G,0.09
2,U20C A77G A78G U112A,1.71
3,U20C G53A U108C A117U,1.67
4,U23C U115C C123U,2.01
5,U29A A42G U112A,1.12
6,A78G U100C U108C,0.38
7,U20A A77G A117G,0.68
8,U12G U15C U39C A79U A92G G126U U134C A141G,0.72
9,G32A A141G U143C,2.22
10,G36A A94G U96C,0.02
11,G53U U85C A140G,0.07
12,U45C G53A A94G,0.31
13,U73C C95A U100C,0.28
14,U20A C28U A31U U130C,2.87
15,U13C C17U U39A U62C U87C U100C,0
16,A50G C68U A107G A121G,0
17,U100A U102C A141G,1.33
18,A22G U29C C128U,1.72
19,U13C A24U U104C U119C A140G,2.19
20,U5A U85C U115C U143C,0.89
21,U104C A124U G127U A140G,1.58
22,U15C A78G U108A U143C,1.09
23,A77G U100C C113U,2.52
